Source: the antibiotic and cytotoxicity screens of Wong et al. (2023)
The list shows a part of the results.

Assays:
[1] = tested on: HSkMC (human skeletal muscle cells); assay: cytotoxicity call (relative viability < 0.9); settings: 10 µM
[2] = tested on: HepG2; assay: cytotoxicity call (relative viability < 0.9); settings: 10 µM
[3] = tested on: S. aureus RN4220; assay: growth inhibition call (relative growth <= 0.2); settings: 50 µM

Cc1csc2sc(C(=O)Oc3ccc(Cl)cc3)c(C)c12
inactive: cytotoxicity call [1] | cytotoxicity call [2] | growth inhibition call [3]

COc1ccc(NC(=O)Nc2ccc3c(c2)C(=O)N([C@H](C)CO)C[C@H](C)[C@H](CN(C)C(=O)c2ccccc2)OCCCC[C@H](C)O3)cc1
inactive: cytotoxicity call [1] | cytotoxicity call [2] | growth inhibition call [3]

COC(=O)c1ccc2c(c1)NC(=O)C2
inactive: cytotoxicity call [1] | cytotoxicity call [2] | growth inhibition call [3]

C[C@H](CO)N1C[C@H](C)[C@@H](CN(C)CC2CC2)Oc2c(NS(=O)(=O)c3cccs3)cccc2C1=O
inactive: cytotoxicity call [1] | cytotoxicity call [2] | growth inhibition call [3]

Cc1ccc(S(=O)(=O)Nc2ccc3c(c2)C(=O)N([C@H](C)CO)C[C@H](C)[C@H](CN(C)S(=O)(=O)c2ccc(F)cc2)OCCCC[C@H](C)O3)cc1
inactive: cytotoxicity call [1] | cytotoxicity call [2] | growth inhibition call [3]

Nc1ccc(C(=O)Oc2ccccc2)c(O)c1
inactive: cytotoxicity call [1] | cytotoxicity call [2] | growth inhibition call [3]

CC(C)CC#Cc1cnc2c(c1)C(=O)N([C@H](C)CO)C[C@H](C)[C@H](CN(C)S(=O)(=O)c1cccs1)O2
inactive: cytotoxicity call [1] | cytotoxicity call [2] | growth inhibition call [3]

Cc1noc(C)c1NC(=O)N(C)C[C@H]1Oc2ccc(NC(=O)c3ccncc3)cc2C(=O)N([C@@H](C)CO)C[C@@H]1C
inactive: cytotoxicity call [1] | cytotoxicity call [2] | growth inhibition call [3]

C[C@H](CO)N1C[C@H](C)[C@H](CN(C)C(=O)Nc2ccc3c(c2)OCO3)Oc2c(NC(=O)C3CCOCC3)cccc2C1=O
inactive: cytotoxicity call [1] | cytotoxicity call [2] | growth inhibition call [3]

O=C(C[C@H]1CC[C@H]2[C@@H](COC[C@H](O)CN2C(=O)Nc2ccc(Cl)cc2)O1)NCCc1ccncc1
inactive: cytotoxicity call [1] | cytotoxicity call [2] | growth inhibition call [3]

C[C@H]1CCCCO[C@@H](CN(C)C(=O)Nc2ccc(C(F)(F)F)cc2)[C@@H](C)CN([C@@H](C)CO)C(=O)c2cc(NC(=O)Nc3ccccc3)ccc2O1
inactive: cytotoxicity call [1] | cytotoxicity call [2] | growth inhibition call [3]

C[C@@H]1CN([C@@H](C)CO)S(=O)(=O)c2ccc(-c3cccnc3)cc2O[C@@H]1CN(C)C(=O)c1ccc2c(c1)OCO2
inactive: cytotoxicity call [1] | cytotoxicity call [2] | growth inhibition call [3]

Cc1noc(C)c1S(=O)(=O)Nc1ccc2c(c1)C(=O)N([C@@H](C)CO)C[C@H](C)[C@H](CN(C)CC1CCCCC1)OCCCC[C@H](C)O2
inactive: cytotoxicity call [1] | cytotoxicity call [2] | growth inhibition call [3]

C[C@H](CO)N1C[C@H](C)[C@@H](CN(C)Cc2ccc3c(c2)OCO3)Oc2ccc(NC(=O)c3ccncc3)cc2C1=O
inactive: cytotoxicity call [1] | cytotoxicity call [2] | growth inhibition call [3]

O=C(C[C@H]1CC[C@H]2[C@@H](COC[C@H](O)CN2C(=O)Nc2cccc(Cl)c2)O1)NCc1ccccc1F
inactive: cytotoxicity call [1] | cytotoxicity call [2] | growth inhibition call [3]

COc1ccc(S(=O)(=O)Nc2cccc3c2O[C@@H](CN(C)C(=O)NC(C)C)[C@@H](C)CN([C@H](C)CO)C3=O)cc1
inactive: cytotoxicity call [1] | cytotoxicity call [2] | growth inhibition call [3]

C[C@@H]1CN([C@H](C)CO)C(=O)Cc2cc(NC(=O)CCC(F)(F)F)ccc2O[C@@H]1CN(C)Cc1ccc(C(F)(F)F)cc1
inactive: cytotoxicity call [1] | cytotoxicity call [2] | growth inhibition call [3]

Cc1cccc(N2C[C@@H](N)CC2=O)c1
inactive: cytotoxicity call [1] | cytotoxicity call [2] | growth inhibition call [3]

CC(=O)C1(O)CCC2C3CCC4=CC(=O)CCC4(C)C3CCC21C (configuration not stated)
inactive: cytotoxicity call [1] | cytotoxicity call [2] | growth inhibition call [3]

COc1ccc(S(=O)(=O)N(C)C[C@H]2OCCCC[C@@H](C)Oc3ccc(NC(=O)CCCCCC(=O)Nc4ccccc4N)cc3C(=O)N([C@H](C)CO)C[C@H]2C)cc1
inactive: cytotoxicity call [1] | cytotoxicity call [2] | growth inhibition call [3]

C[C@@H]1CN([C@H](C)CO)C(=O)c2cccc(NC(=O)NC3CCCCC3)c2O[C@@H]1CN(C)Cc1ccc(-c2ccccc2)cc1
inactive: cytotoxicity call [1] | cytotoxicity call [2] | growth inhibition call [3]

C[C@H](CO)N1C[C@H](C)[C@H](CN(C)C(=O)Nc2cccc3ccccc23)Oc2c(NC(=O)Nc3ccc(F)cc3)cccc2C1=O
inactive: cytotoxicity call [1] | cytotoxicity call [2] | growth inhibition call [3]

COc1ccc(NC(=O)Nc2ccc3c(c2)C(=O)N([C@H](C)CO)C[C@H](C)[C@H](CN(C)C(=O)Nc2ccc4c(c2)OCO4)OCCCC[C@H](C)O3)cc1
inactive: cytotoxicity call [1] | cytotoxicity call [2] | growth inhibition call [3]

C[C@@H]1CCCCO[C@@H](CN(C)Cc2ccncc2)[C@@H](C)CN([C@@H](C)CO)C(=O)c2cc(NC(=O)c3ccccc3)ccc2O1
inactive: cytotoxicity call [1] | cytotoxicity call [2] | growth inhibition call [3]

CCn1c(=O)cc(N2CCC(C)CC2)[nH]c1=O
inactive: cytotoxicity call [1] | cytotoxicity call [2] | growth inhibition call [3]

C[C@H]1CCCCO[C@H](CN(C)C)[C@@H](C)CN([C@@H](C)CO)C(=O)c2cc(NC(=O)CCCCCC(=O)Nc3ccccc3N)ccc2O1
inactive: cytotoxicity call [1] | cytotoxicity call [2] | growth inhibition call [3]

CCNC1CC(N)C(OC2OC(CN)=CCC2N)C(O)C1OC1OCC(C)(O)C(NC)C1O.O=S(=O)(O)O.O=S(=O)(O)O (configuration not stated)
inactive: cytotoxicity call [1] | cytotoxicity call [2] | growth inhibition call [3]

C[C@H](CO)N1C[C@H](C)[C@@H](CN(C)CC2CCCCC2)OCCCC[C@H](C)Oc2ccc(NC(=O)Nc3ccc4c(c3)OCO4)cc2C1=O
inactive: cytotoxicity call [1] | cytotoxicity call [2] | growth inhibition call [3]

C[C@H]1CN([C@@H](C)CO)C(=O)c2cccc(NS(=O)(=O)c3ccc(Cl)cc3)c2O[C@@H]1CN(C)C(=O)Nc1cccc2ccccc12
inactive: cytotoxicity call [1] | cytotoxicity call [2] | growth inhibition call [3]
